In the supplement of paper PMC11417369:
This is one part of the list.

tested on: PfSIP2 AP2 domain 1 (GST-tagged); test: gcPBM binding intensity (ln(normalized median fluorescence intensity)); higher = stronger DNA binding
Method in brief: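 GST-fused DNA-binding domains of P. falciparum, expressed in E. coli, were applied at about 25 μg on average for 1 h to an Agilent 4 × 180k array of primer-extended double-stranded 36-bp intergenic genomic probes and negative controls. Binding intensity is the highest Masliner-normalised natural-log median intensity across replicate spots of either probe orientation, measured with Alexa488 anti-GST antibody and a 488 nm scan.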

| Sequence | gcPBM binding intensity (ln) |
| --- | --- |
| TAAAATAAAATAAAATGTACTTTCCTTTTGATAATA [XGTACX_site6288] | 6.72 |
| TTTTCCCTTACAGAAAAAAAAAAATTCCTAACCCCG [CACACA_negctrl_site650] | 7.04 |
| ATATATTTTAGGAGAGTGCATTTAATATTATTTAAT [GTGCAC_site9444] | 8.99 |
| TTATATATTTATAATCGTACAATAATTAACGTAAAA [XGTACX_site3206] | 7.19 |
| TTTTTCTTTTTTTTTTCCTTTATCACATAAGAAAAA [CACACA_negctrl_site192] | 6.97 |
| AAGATATGAGGGAATACACACATATATATATATATA [CACACA_site1581] | 9.62 |
| AAAATGAAGAAGTGCACACATATATATATTTATATA [CACACA_site507] | 10.7 |
| AAGAAAATAAATAATACACACAAGGATTTGTAAATA [CACACA_site690] | 6.72 |
| CTTTTTTTTTAAAAATGTACACATTTTTGAAAATAC [XGTACX_site3127] | 7.09 |
| ATATGTTTGATTTTTTTTTTTTTTTTTTTTATGTGT [CACACA_negctrl_site1001] | 7.06 |
| AAAAAAAAAATTAAAAGTACAGAAAATAAATAAATA [XGTACX_site7470] | 6.85 |
| TTAATACACCATAAAAGTACATAATATGATATTTAA [XGTACX_site8561] | 7.03 |
| TTATAAAAAGAACAATTAAAAAAAAATAAAATAAAA [XGTACX_negctrl_site398] | 6.88 |
| AGAATAGTGGAAAACACACACGTTTGAGATATGGAC [CACACA_site4782] | 7.19 |
| CACCCACCCACATACACACACATACACATATATATA [CACACA_site1722] | 7.65 |
| TTTTTATGTTCTATATATATATATATATATATATAT [GTGCAC_negctrl_site306] | 9.54 |
| GCACGTGTGATTAGATGTACATAACATGTATATGTC [XGTACX_site4632] | 7.14 |
| ATACATACATATGTATGTACGTATGTATGTATGTAT [XGTACX_site3853] | 7.22 |
| CAAATAAAAAAAGTAGCACACATGAATAAAATATAT [CACACA_site3130] | 7.07 |
| CATAATATATATTGAGCATGCTACTATTGTTAGAAA [TGCATGCA_site740] | 6.93 |
| ACATATAAGATATATACACACATATAAATACATTAA [CACACA_site7763] | 7.17 |
| AAAAAAAAAAACTACACACATACAAATATTTATATA [CACACA_site2574] | 7.03 |
| ATTAAATCATATGAATGTACGGATATATATATTTCC [XGTACX_site8650] | 6.9 |

| Sequence | gcPBM binding intensity (ln) |
| --- | --- |
| TGATAAATTTTCACATGTACATATATAGAATAACCT [XGTACX_site2860] | 7.16 |
| TAATAAGTATCAAAATGTACATGACAAAAATAATTT [XGTACX_site8961] | 6.99 |
| TCTAAAAAAATTATATCACACATTATAAAGCATATT [CACACA_site4885] | 6.67 |
| TATACACATAGACACACACACATACACGCACATACA [CACACA_site6908] | 7.33 |
| ATATATATGTATATATGTACATATATGTATATATAT [XGTACX_site4772] | 7.69 |
| ATAATTTTATATAAATGTACATACATTTTTATTATA [XGTACX_site7368] | 7 |
| ATAATATATGCAAAAACATGCACATAATATGTAAAA [TGCATGCA_site742] | 9.05 |
| ATTTGAAAAAATACTACACACCATATTGTTAATTTT [CACACA_site3829] | 6.77 |
| AAGATTCATATAAAAAGTACAAAAAGAAAAAAATAA [XGTACX_site6033] | 6.89 |
| ATATCTTCACTTATATGTACTTACATTTTTTTTTTT [XGTACX_site8696] | 7.26 |
| ATTTGTATATAATATATATAATTTTTTTTTTTTGTT [XGTACX_negctrl_site425] | 6.92 |
| ATAACTATATACATCTGTACATAATACATAGATAAA [XGTACX_site2795] | 7.07 |
| ATATATATATATGTATGTATATATATATGTTTGATT [XGTACX_negctrl_site62] | 9.56 |
| ATGAATTAACCTAATCGTACAATAAATATTATTATA [XGTACX_site596] | 6.95 |
| ACTATTTAAAAATATGGTACACGAAATTCAAGAGAA [XGTACX_site5903] | 7.37 |
| TTGTTTATGTGAGAAGTGCATTTTTTCGTTCATGTA | 8.96 |
| ATATGTTTAAAAATATGTACGTATTATATATTCTAT [XGTACX_site1358] | 7.21 |
| TTTTTTATTTTGTTGAAGCAATGAAAATGAATGAAA [TGCATGCA_negctrl_site495] | 7.24 |
| AAGTTTTATATTTATTAAATTTTTTTTTTTCCTTTT [XGTACX_negctrl_site184] | 6.45 |
| ATGTAAGTATAAAATGTGCGCATTGGGAATGAGGAC | 7.95 |
| TTTATATAAGGACATGCATGCTATTATTAAATATAT [TGCATGCA_site1011] | 6.89 |
| TAATATATAAATATATGTACATAATAAATAGGATAT [XGTACX_site3661] | 7.16 |
| ACTTCATAGGTTACCTGTACATATAAGGAGTTATCA [XGTACX_site4110] | 7 |

| Sequence | gcPBM binding intensity (ln) |
| --- | --- |
| TACGCGAAATGAATATGTACATATATGAGGGCATAT [XGTACX_site4293] | 7.05 |
| GGAAACCCTCCCAAATGTACTTTTATAAAAAAATAC [XGTACX_site5502] | 7.13 |
| TATACTCAGAAACACACACACACACCCAAAAAAAAA [CACACA_site4434] | 7.3 |
| TTTGCCATAAAACACACACACATGTAAACCCCCTTT [CACACA_site1646] | 7.57 |
| ATATAAGTACATATAACACACATATATTATAAGTAT [CACACA_site2647] | 7.3 |
| AAAAAAAAAAAAAAAACACACATACACCCAGACACA [CACACA_site5807] | 7.64 |
| ATACATATATAAATATGTACACACATATGTATGATC [XGTACX_site8219] | 6.99 |
| GATATAAGGGTATGAAGTACATAAATATTTTATGCT [XGTACX_site1886] | 6.98 |
| TTTTTATTTTTTGTCTGTACATATATAAATTTATTA [XGTACX_site1525] | 7.22 |
| TATGCACGCGAACACACACACACAACTAAAAAATAA [CACACA_site7251] | 7.45 |
| TATATTCTTTTAAACAGTACACACACACATATATAT [XGTACX_site1701] | 7.55 |
| AATATAAAAATATAAAAACACACGTAAAAAAATTTA [CACACA_site3399] | 6.98 |
| TTTTATTTATAATATATACACACTAACATTATTTAT [CACACA_site1284] | 6.87 |
| GAATATTTATCATGGGGTACCTTAAAAAAGGGAAAA [XGTACX_site298] | 6.93 |
| ATATCTTAAATTATTTGTACATATATATATATATAT [XGTACX_site8034] | 9.13 |
| AATATAAACCCAAACACACACATATATATATATATA [CACACA_site268] | 9.29 |
| TTTTTTTTTTTGAGGAGGACACAAAAATATGCTACC [XGTACX_site756] | 7.31 |
| TTAACGCTTATTTTTTGTACTTATTTTATTTTAAAT [XGTACX_site3977] | 7.22 |
| CAACATTAATATAAAGCACACATATATATAATATAT [CACACA_site8064] | 6.98 |
| ACTCTATAATAAAATACACACAAGACTATCTAATAT [CACACA_site1796] | 7.21 |
| ATATATACATATAATTGTACTTGTGTTGTTTTTCTT [XGTACX_site1870] | 7.19 |
| TGTAGATATTATATATGTACGCATATGAAATATATA [XGTACX_site1586] | 6.86 |
| TAATTATATAAATATTGTACAAAAAAAATATATATA [XGTACX_site3137] | 7.19 |

| Sequence | gcPBM binding intensity (ln) |
| --- | --- |
| TTCAAAATATATATTTGTACATATAGGATCTTTTTC [XGTACX_site4500] | 6.89 |
| AAAATATATAATATAACACACATATATTCTATATGG [CACACA_site4044] | 6.91 |
| GTAATATCAATATAAAGTACACACTATAGTATGTAT [XGTACX_site4714] | 6.98 |
| TCTTTTTTTTTTTTTTTTTTTTTTTTTTTTTTTTTT [GTGCAC_negctrl_site18] | 9.1 |
| ATTTTAATGACATATACACACAAAGGTTCATAACAA [CACACA_site5664] | 6.91 |
| ATAAAACCAACATAGAGTACAGATCGACTATGTTTC [XGTACX_site4329] | 7.05 |
| TTTTCTTTTTAAATTACACACACATATATATATGTA [CACACA_site9172] | 7.05 |
| AAAAAAGAAAAGAAATGTACAGAGCTTATCTTTTTA [XGTACX_site5677] | 6.43 |
| TTCAATTTTACATGTAGTACATAAATTATACACAAA [XGTACX_site4946] | 7.49 |
| TTATTCCTATTTGGATGTACATTTTAATATAAACAT [XGTACX_site4386] | 6.93 |
| TTTTTTAATTTTACATGTACATACAGGTTTTTTTTT [XGTACX_site4539] | 7.05 |
| AATGATAAAAATAAATGTACAGAATGATATTTTTTT [XGTACX_site5976] | 7.02 |
| ATTAATAAATAAATGACACACACACCCACAAAAAAA [CACACA_site8839] | 7.17 |
| AAAAAATTGTTTCCCTGTACTCAAAAAAAAAAAAAA [XGTACX_site8070] | 7.11 |
| TAAAATTTACGGTCTTGTTGCGCAACCAACATTGTC [CACACA_negctrl_site1175] | 6.94 |
| TAATAATAGTAAATATGTACATATATATATATATAG [XGTACX_site4602] | 7.52 |
| GTTTTTTTTTTTTTGGTGCGTCATTTTCAAAAGAAG [GTGCAC_site9745] | 9.53 |
| GTATGTATGTATGTATGTACTTATTTATTTATTTAT [XGTACX_site1921] | 8.21 |
| TAAATTTAAAATGACACACACTAAAATTATTTAAGT [CACACA_site4816] | 6.84 |
| ACCTTTAATATATACACACACATAAAAAAAATATAT [CACACA_site1843] | 7.83 |
